# Source: the supplement of paper PMC9135407
# Values joined by “and” are separate entries in the source; they are usually repeats but may differ in a detail not shown here. Equal values may be shown once. Where a name gives a salt, the structure may show the parent alone. In all, about 5,800 compounds went through this assay and about 620 (11%) showed activity.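 The calls were made as follows: active = score above a cut-off or among the top three wells of a plate; in these data no inactive exceeds 0.85.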 Only a part is listed here, and it is no random draw.
# Test system: primary human hepatic stellate cells (donor 1)
# Assay: scaled lipid accumulation score (0 = DMSO-like, 1 = nortriptyline-like); higher = stronger HSC inactivation (lipid re-accumulation), active = hit call of the paper
# Conditions: 48 h
# [1] = library stock concentration: 10 mM
# [2] = library stock concentration: 3.33 mM
compound,measurement,setting,value
CNC(=O)Oc1ccccc1OC(C)C,scaled lipid accumulation score,[1],inactive: 0.046
O=C(O)Cc1cnc[nH]1 [Imidazole-4-acetic acid hydrochloride],scaled lipid accumulation score,[1],inactive: ≤ -0.07
CC(=O)NC1CCSC1=O (configuration not stated) [Citiolone],scaled lipid accumulation score,[1],inactive: ≤ -0.027
O=C(O)[C@@H]1CCN1 [L-azetidine-2-carboxylic acid],scaled lipid accumulation score,[1],inactive: 0.097
c1ccc(/N=N/c2ccccc2)cc1 [Azobenzene],scaled lipid accumulation score,[1],inactive: ≤ 0
CCCCCCCCCCCCCCCC[n+]1ccccc1 [Cetylpyridinium chloride],scaled lipid accumulation score,library stock concentration: 5.9 mM,inactive: 0.13
same,scaled lipid accumulation score,[1],inactive: 0.654
CCCCCCCCCCCCCCCC[n+]1ccccc1 [Cetylpyridinium Chloride],scaled lipid accumulation score,[2],inactive: ≤ 0
same,scaled lipid accumulation score,[1],inactive: 0.277
C=CCC1(C(C)CCC)C(=O)NC(=S)NC1=O (configuration not stated) [Thiamylal sodium],scaled lipid accumulation score,library stock concentration: 7.2 mM,inactive: 0.022
c1ccc2c3c([nH]c2c1)CNCC3,scaled lipid accumulation score,[1],inactive: 0.806
Fc1cc(F)c2c(c1)[C@H]1C=CC[C@@H]1C(c1cccnc1)N2 (some centres not stated) [Golgicide A],scaled lipid accumulation score,[2],active: 0.872
same,scaled lipid accumulation score,[1],active: 1.03
COc1ccc(CCN2CCC(Nc3nc4ccccc4n3Cc3ccc(F)cc3)CC2)cc1 [Astemizole],scaled lipid accumulation score,,active: 1
Cc1ccc(-n2nccn2)c(C(=O)N2CCN(c3nc4cc(Cl)ccc4o3)CC[C@H]2C)c1 [Suvorexant (MK-4305)],scaled lipid accumulation score,[2],inactive: ≤ -0.009
same,scaled lipid accumulation score,[1],inactive: ≤ 0
"COc1ccc2c(c1OC)C(=O)O[C@H]2[C@@H]1c2cc3c(cc2CCN1C)OCO3 [1s,9r-hydrastine]",scaled lipid accumulation score,[1],inactive: ≤ 0
"CCCN1CCO[C@@H]2c3cc(O)ccc3OC[C@H]21 [(?)-PD 128,907 hydrochloride]",scaled lipid accumulation score,[1],inactive: ≤ 0
CCCN1CCO[C@@H]2c3cc(O)ccc3OC[C@H]21,scaled lipid accumulation score,[2],inactive: ≤ 0
same,scaled lipid accumulation score,[1],inactive: 0.074 and inactive: ≤ -0.006
CCOP(=S)(OCC)Oc1nc(Cl)c(Cl)cc1Cl,scaled lipid accumulation score,[1],inactive: ≤ 0
CCCCCCC(=O)CCCCCC/C=C/C[C@@H](O)[C@H](O)[C@@](N)(CO)C(=O)O [Myriocin],scaled lipid accumulation score,library stock concentration: 1 mM,inactive: 0.023
Oc1cc(Cl)ccc1Oc1ccc(Cl)cc1Cl [Triclosan],scaled lipid accumulation score,library stock concentration: 6.9 mM,inactive: 0.456
same,scaled lipid accumulation score,[1],inactive: 0.163
CC1(C)C(C=C(Cl)Cl)C1C(=O)OC(C#N)c1cccc(Oc2ccccc2)c1 (configuration not stated),scaled lipid accumulation score,[1],inactive: 0.476
CC1(C)C(C=C(Cl)Cl)C1C(=O)OC(C#N)c1cccc(Oc2ccccc2)c1 (configuration not stated) [Cypermethrin],scaled lipid accumulation score,library stock concentration: 12 mM,inactive: 0.455
CC(C)n1cnc2c(C(=O)N[C@H]3CN4CCC3CC4)cc(Cl)cc21,scaled lipid accumulation score,[1],inactive: 0.464
